Measurements as given in PubChem BioAssay AID1259400 (National Center for Advancing Translational Sciences (NCATS), 2018).
In all, about 350,000 compounds went through this assay and about 2,100 (0.6%) were called active. This list was built around the results that the source calls inconclusive (neither active nor inactive); the mix of calls is not that of the screen.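 How the source made its calls: active means activity change of -60% or lower, but not beyond a set lower limit; inconclusive means change between -60% and -40%, or beyond the set limit; inactive means change above -40%.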

target: Relaxin receptor 1 (Homo sapiens) (UniProt Q9HBX9); test: qHTS Assay for Antagonists of the Relaxin Receptor RXFP1; conditions: HEK293-RXFP1, relaxin-stimulated cAMP HTRF, 30 min; at 57.5 µM; active compounds read low
On the % scale 0 is the no-effect control and ±100 the full control effect.

Sequence of UniProt Q9HBX9 (Q9HBX9 whole entry, looked up): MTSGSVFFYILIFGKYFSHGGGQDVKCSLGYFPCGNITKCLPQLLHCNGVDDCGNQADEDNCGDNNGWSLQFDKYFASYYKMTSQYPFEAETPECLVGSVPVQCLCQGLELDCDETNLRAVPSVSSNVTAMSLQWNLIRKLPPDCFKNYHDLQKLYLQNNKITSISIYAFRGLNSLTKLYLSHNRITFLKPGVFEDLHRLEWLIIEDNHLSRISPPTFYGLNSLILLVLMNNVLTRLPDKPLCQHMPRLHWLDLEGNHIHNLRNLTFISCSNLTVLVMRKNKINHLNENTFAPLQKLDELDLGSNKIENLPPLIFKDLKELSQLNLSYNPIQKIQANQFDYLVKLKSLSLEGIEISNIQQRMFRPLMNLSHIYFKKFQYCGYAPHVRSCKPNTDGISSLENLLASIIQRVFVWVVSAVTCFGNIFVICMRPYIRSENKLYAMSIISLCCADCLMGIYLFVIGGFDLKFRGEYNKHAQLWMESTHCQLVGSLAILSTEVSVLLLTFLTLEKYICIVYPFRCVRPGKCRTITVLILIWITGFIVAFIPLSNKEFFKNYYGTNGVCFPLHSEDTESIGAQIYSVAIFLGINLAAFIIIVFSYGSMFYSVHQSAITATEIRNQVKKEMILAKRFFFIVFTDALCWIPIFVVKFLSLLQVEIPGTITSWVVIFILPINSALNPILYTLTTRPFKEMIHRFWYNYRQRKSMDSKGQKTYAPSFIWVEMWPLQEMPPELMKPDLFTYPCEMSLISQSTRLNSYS

Compound	activity change, negative = inhibition
C=CCc1cc(Cl)ccc1OCCOCCNC(C)CC (stereo unspecified)	inconclusive: -51.3%
O=C1C=C(c2ccc(Cl)cc2)C(=O)N1Nc1ccccc1	active: -62.4%
COc1ccc(Cl)cc1-n1c(C)cc(C=O)c1C	inactive: 2.73%
Cc1cc(S(=O)(=O)N2CCN(Cc3ccccc3)CC2)c(C)s1	inconclusive: -45%
COc1ccccc1/C=C/CN1CCCC(CO)(Cc2cccc(Cl)c2)C1 (stereo unspecified)	inconclusive: -55.5%
COC(=O)c1ccccc1S(=O)(=O)N1CCC(C(=O)Nc2ccc(N3CCOCC3)cc2)CC1	inconclusive: -41.8%
COc1ccc(CCNc2nc(C)nc3c2oc2ccccc23)cc1OC	inconclusive: -40.8%
CCOC(=O)c1oc2nc(CC(C)C)c3c(c2c1N)CCCC3	inconclusive: -40%
O=C(Nc1ccccc1C(=O)O)c1cc(S(=O)(=O)N2CCCCCC2)ccc1Cl	inconclusive: -44.1%
N#CC1C(=O)c2ccccc2C1c1ccccc1 (stereo unspecified)	active: -92%
O=C(COC(=O)Cc1n[nH]c(=O)c2ccccc12)NNC(=O)c1ccccc1	inconclusive: -47.7%
CCc1cc(C(=O)OC)c(NC(=O)c2ccoc2C)s1	inactive: -17.5%
COc1ccc(NS(=O)(=O)c2ccc(N)c(C(=O)O)c2)cc1	inactive: 10.1%
CCN(CC)C(=O)CSC(Nc1cccc(F)c1)=C(C#N)C#N	inconclusive: -49.7%
Cc1nc(N2CCC(C)CC2)c2c(C)c(C(=O)Nc3cccc(C(F)(F)F)c3)sc2n1	inactive: -9.84%
Cc1cc(C)cc(NC(=O)Cn2nc(N3CCN(c4ccccc4)CC3)ccc2=O)c1	inactive: -7.03%
CCOc1ccc(NC(=O)C(CC(C)C)N2Cc3ccccc3C2=O)cc1 (stereo unspecified)	inconclusive: -41.4%
COc1ccc(OC)c(Nc2nc(=O)c3cccnc3s2)c1	inactive: -2.56%
COc1ccc(CNC(=O)N2[C@H]3CC[C@@H]2C=C(c2ccc(F)cc2OCc2ccccc2)C3)cc1OC	inactive: 11.6%

Compound	activity change, negative = inhibition
Cc1ccccc1NC(=O)CN(C)S(=O)(=O)c1ccc2c(c1)n(C)c(=O)c(=O)n2C	inconclusive: -44.4%
C(#CCN1CCCC1)CC(c1ccccc1)c1ccccc1	inconclusive: -43.1%
Cc1cc(SCC(=O)N/N=C/c2ccc(O)c(O)c2)nc2ccccc12	active: -67%
Cn1cccc1/C=C1\SC(=O)N(CC(=O)Nc2ccc(F)cc2)C1=O	active: -75.7%
CCN(CC)CCN(C(=O)c1ccc2c(c1)CCCC2)c1nc2cc(OC)c(OC)cc2s1	inconclusive: -54.3%
Cc1cccc(NC(=O)Cn2cc(C(=O)C3CC3)c3ccccc32)c1	inactive: -6.6%
CCN(CC)c1ccc(/C=C/c2ccc3ccc(OC)cc3[n+]2CC)cc1	inconclusive: -40.2%
Nc1nonc1-n1nnc(C(=O)N/N=C/c2cccnc2)c1-c1cccs1	inactive: 8.38%
CC(CCc1ccccc1)NC(=O)c1ccccc1Cl (stereo unspecified)	active: -74%
COc1ccc(C)cc1NC(=O)C1CCC(CNS(=O)(=O)c2ccc3c(c2)CCCC(=O)N3)CC1 (stereo unspecified)	inconclusive: -44.6%
COc1ccc(C(=O)/C(=C\c2ccco2)N2C=CC=CC2=C(C#N)C#N)cc1	active: -74.9%
COc1ccc(-c2cc(=O)oc3cc(OCC(=O)NCCN4CCOCC4)ccc23)cc1	inconclusive: -40.3%
O=C(CSc1nc2ccc(Cl)cc2[nH]1)c1c[nH]c2ccccc12	inconclusive: -47.5%
CC1Cn2c(C(=O)NCCc3ccc(Cl)cc3)cc3cccc(c32)S1 (stereo unspecified)	inconclusive: -45%
Cc1cccc(N2CCN(C(=O)C3CCN(C(=O)c4cc5sccc5n4C)CC3)CC2)c1C	inconclusive: -48.8%
O=C(N/N=C/c1ccc(O)c(O)c1O)/C(=C/c1ccc([N+](=O)[O-])cc1)NC(=O)c1ccccc1	active: -71.3%
Brc1nc(-c2ccccc2)nc(-c2ccccc2)c1Br	inactive: 6.5%
O=C(O)c1ccccc1C(=O)c1ccc2c(c1)N(Cc1ccc(Cl)c(Cl)c1)C(=O)CO2	inconclusive: -50.3%
CCOc1ccccc1N1CCN(C(=O)c2ccc3nc(N)sc3c2)CC1	inconclusive: -42.7%

Compound	activity change, negative = inhibition
CCc1ccc(NS(=O)(=O)c2ccc3oc(=O)c4ncn(CC)c4c3c2)cc1	inconclusive: -55.4%
CCn1c(SCc2ccccc2C)nc(=O)c2c(C(=O)OC)cc(C3CC3)nc21	inconclusive: -41.6%
COc1ccc(NC(=O)CCS(=O)(=O)c2nc(-c3cccs3)cc(C(F)(F)F)n2)cc1	inconclusive: -42%
COc1cccc(-n2c(-c3ccccc3)c[nH]c2=S)c1	active: -79.2%
CCOC(=O)C1(Cc2cccc(OC)c2)CCN(Cc2ccc(C)s2)CC1	inconclusive: -54.5%
O=C(NNCc1ccc(O)cc1)c1ccccc1Cl	inactive: -24.7%
Cc1nc2ccccn2c1-c1csc(Nc2cccc(O)c2)n1	inconclusive: -43%
CCOC(=O)C1=C(C)NC(SCC(=O)Nc2cc(C)on2)=C(C#N)C1c1cccs1 (stereo unspecified)	inconclusive: -42.9%
CC(C)Oc1ccc(CN2CCc3nc(Nc4ccc5c(c4)OCCO5)ncc3C2)cc1	inconclusive: -43.8%
COc1ccccc1OCC(=O)NCC1CCCN(Cc2cnn(C(C)C)c2)C1 (stereo unspecified)	inactive: -1.15%
COC(=O)c1ccc(NC(=O)CN2CCCN(Cc3ccc(Cl)cc3)S2(=O)=O)cc1	inactive: -21.1%
Cc1ccc(C)c(OCCC(=O)OCC(=O)Nc2cc(S(=O)(=O)N3CCOCC3)ccc2C)c1	inactive: -7.34%
CCCCCCCCCCCCCC[N+](C)(C)C	inconclusive: -45%
CCOC(=O)CSc1nc(C(C)C)nc2sc(C)c(C)c12	active: -60.5%
COC(=O)c1ccccc1-c1c2ccc(=N)cc-2oc2cc(N)ccc12	inactive: 14.7%
O=[N+]([O-])c1cc(Cl)ccc1N1CCN(c2cccc(C(F)(F)F)c2)CC1	inactive: -3.85%
O=C(CCNC(=O)C1CCN(S(=O)(=O)c2ccc(F)cc2)CC1)NCc1ccc(F)cc1	inconclusive: -50.6%
Cc1nc2c(C(=O)NCCC(C)C)c[nH]n2c(=O)c1Cc1ccccc1F	active: -101%
